Results reported in paper PMC6919601, “Identification of Plasmodium dipeptidyl aminopeptidase allosteric inhibitors by high throughput screening” (PLoS ONE, 2019).
About 230 (0.21%) of roughly 110,000 compounds showed an effect of 50% or more. The list shows a part of the results.

Molecular target: DPAP1 (Plasmodium falciparum, UniProt Q8IIJ9)
Test: primary screen, percent inhibition; read by cleavage of a fluorogenic dipeptide substrate; higher = more effect of the substance
Parameters: species or system P. falciparum D10 trophozoite lysates; single well
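Further: 30 min substrate incubation versus DMSO and 10 µM JCP410 controls.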

Chain of DPAP1 (Q8IIJ9 whole entry, looked up): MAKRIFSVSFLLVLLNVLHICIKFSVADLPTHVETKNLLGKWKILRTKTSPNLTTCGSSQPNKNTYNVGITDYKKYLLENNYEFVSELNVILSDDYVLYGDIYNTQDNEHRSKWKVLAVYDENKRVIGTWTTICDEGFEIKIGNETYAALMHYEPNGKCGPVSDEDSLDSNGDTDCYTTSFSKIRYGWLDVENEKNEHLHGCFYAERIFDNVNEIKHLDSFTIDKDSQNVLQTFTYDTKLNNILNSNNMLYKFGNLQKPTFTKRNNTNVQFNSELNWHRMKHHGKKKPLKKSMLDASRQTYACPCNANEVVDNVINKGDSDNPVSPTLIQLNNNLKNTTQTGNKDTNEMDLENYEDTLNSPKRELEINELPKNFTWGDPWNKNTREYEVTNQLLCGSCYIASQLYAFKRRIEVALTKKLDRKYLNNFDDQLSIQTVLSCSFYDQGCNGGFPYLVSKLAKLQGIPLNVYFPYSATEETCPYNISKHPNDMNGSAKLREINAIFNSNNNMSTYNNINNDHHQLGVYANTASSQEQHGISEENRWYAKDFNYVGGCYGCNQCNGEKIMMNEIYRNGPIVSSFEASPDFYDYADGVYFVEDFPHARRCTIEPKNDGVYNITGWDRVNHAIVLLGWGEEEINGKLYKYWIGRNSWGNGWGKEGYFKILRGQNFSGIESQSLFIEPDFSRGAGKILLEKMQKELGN

SMILES | % Inhibition @ 10 uM [%]
CC12CN3CC(C)(CN(C1)C3c1cccnc1)C2 (stereo not shown) | -2.05
COc1cc(/C=C2\SC(N)=NC2=O)ccc1OCc1ccc(Cl)cc1 | 2.87
O=C(O)c1c2c(nc3ccccc13)CCCCCC2 | -2.22
Cc1nn(-c2ccccc2)c2c1C(c1cccs1)C1=C(O)CC(C)(C)CC1=N2 (stereo not shown) | 2.46
CCOc1ccc(C(=O)N(Cc2ccc(N(C)C)cc2)C2CCS(=O)(=O)C2)cc1 (stereo not shown) | 1.63
CCCC(=O)Nc1ccc(Cc2ccc(NC(=O)CCC)cc2)cc1 | 2.17
Cc1nccn1CCCNC(=O)c1nc(-c2ccc(C(F)(F)F)cc2)no1 | 3.68
CC(=O)N(c1ccc2oc3c(c2c1)CCCC3)S(=O)(=O)c1ccccc1 | 12.4
O=S(=O)(c1ccc2c3c(cccc13)CC2)N1CCSC1 | -10.8
O=C(O)C(Cc1ccccc1)Nc1c2ccccc2nc2ccccc12 (stereo not shown) | -1.69
Cc1cc(NC(=O)CN2C(=O)CN(c3ccccc3)C2=O)no1 | 0.408
COc1cccc(-c2nc(SCc3ccccc3)n3[nH]c(=O)cc3n2)c1 | -4.36
CC(C)CN1CC1C(=O)NCCCO (stereo not shown) | 1.72
CCOC(=O)c1cc(-c2ccccc2)n(CC(=O)N(C)C2CCCCC2)c1C | -3.93
Sc1nc(-c2ccc3c(c2)OCO3)cn1-c1cccc(Cl)c1 | 19.5
CCOc1c(Cl)cc(C(=O)Nc2ccc(C(C)=O)cc2)cc1Cl | 18.7
O=C(Nc1ccccc1C(=O)NCC1CCCO1)c1ccccc1 (stereo not shown) | 0.324
CCN1C=C(C(=O)OC)C(c2cccc(OC)c2OC)C(C(=O)OC)=C1 | 1.88
O=C1c2cccnc2C(=O)N1Cc1ccc(S(=O)(=O)NCc2ccc(Cl)cc2)s1 | 2.48
Cc1nc2ccn(Cc3cccnc3)c(=O)c2cc1C(=O)NCc1cccs1 | -7.5
CCCn1c2ccccc2c2cnn(CC(=O)N3CCCCCC3)c(=O)c21 | 0.928
COc1cccc(CN(C(=O)c2ccc(OC(C)C)cc2)C2CCS(=O)(=O)C2)c1 (stereo not shown) | -6.85
O=C1/C(=C/c2ccccc2OCc2ccccc2)Sc2ccccc21 | 1.27
CCN(CC)C(=O)Cn1cc(SCC(=O)N2CCCCC2)c2ccccc21 | -3.73
CCCC(=O)Nc1nn2c(COc3ccc(C)cc3)nnc2s1 | -2.79

SMILES | % Inhibition @ 10 uM [%]
O=S(=O)(c1ccc2ccccc2c1)N1CCn2c(nc3ccccc32)C1 | 2.34
Cn1c(=O)c2c(nc(Oc3ccc4c(c3)OCO4)n2Cc2ccc(F)cc2)n(C)c1=O | -0.511
CC(=O)c1cccc(N2C(=O)C3CC=C(Cl)CC3C2=O)c1 (stereo not shown) | -8.35
Cc1nc2c(sc3nc4ccccc4cc32)c(=O)n1-c1ccccc1 | 3.62
CC1CCN(S(=O)(=O)c2ccc3c(ccn3CCC(=O)NCc3ccccc3Cl)c2)CC1 | -5.04
Cc1ccc2oc(=O)c3cnn(CC(=O)N4CC=C(c5ccccc5)CC4)c3c2c1 | 1.62
CN(C)c1nc(N)nc(-c2cccnc2)n1 | 2.62
O=C(O)/C(=C/c1ccc2c(c1)OCO2)NC(=O)c1ccco1 | -6.41
CNc1nc(Oc2ccc(O)nn2)nc(N(C)C)n1 | -8.78
CCOc1ccc(CCNC(=O)c2cc3sccc3n2C)cc1 | 0.291
COc1ccc(C(=O)COc2ccc3c(C)c(Cl)c(=O)oc3c2)cc1 | 2.89
Cc1ccc(C(=O)OC(C)CN2CCCC2)cc1 (stereo not shown) | -0.0626
O=C1C2CC=CCC2C(=O)N1c1cccc(C(F)(F)F)c1 (stereo not shown) | 4.32
Cc1ccc(C(=O)N2CCCc3ccccc32)cc1 | -4.15
Cc1ccc(N2C(=O)c3cccnc3C2=O)nc1 | 3.96
O=C(O)c1cccc(NC(=O)c2ccc(Cl)c([N+](=O)[O-])c2)c1 | -3.13
CC1(C)CC(NCC(=O)OC2CCCCC2)CC(C)(C)N1 | -1.82
CCN(CC)c1ccc2nnc(CCC(=O)NCCC3=CCCCC3)n2n1 | -1.68
N#Cc1nc2c(-c3nc4ccccc4s3)c(N)n(CCc3ccccc3)c2nc1C#N | 6.12
OC(CN1CCCCC1)Cn1c2ccccc2c2cc(Cl)ccc21 (stereo not shown) | -3.27
CCOc1ccc(N2C(=O)/C(=C/c3ccc(Br)o3)C(=O)NC2=S)cc1 | 21.6
O=C(CNC(=O)c1cccs1)NCCC1=CCCCC1 | 3.66
Cc1cc(-c2ccc(S(=O)(=O)NC3CCCCCC3)s2)on1 | -0.695
CCCN(CCC)c1c(N2CCN(C(=O)OCC)CC2)c(=O)c1=O | 0.277
O=C(Cc1ccc(-n2cccc2)cc1)NCc1ccc(F)cc1 | -5.76

SMILES | % Inhibition @ 10 uM [%]
COc1ccccc1NS(=O)(=O)c1c(C(C)C)cc(C(C)C)cc1C(C)C | 3.25
COc1ccc(/C=C/C(=O)c2c(C)cc(C)nc2O)c2ccccc12 | -2.7
COc1ccccc1/C=c1\sc2nc(-c3cccs3)nn2c1=O | 1.91
CCOC(=O)c1cnc2c(C)c(Cl)ccc2c1NCc1ccco1 | -2.87
Nc1nc(-c2ccc(O)cc2O)cs1 | -4.32
Cc1cc(/C=C2/SC(=O)N(C)C2=O)c(C)n1-c1ccncc1 | 2.38
Cc1cccc(C(=O)n2nc(-c3ccco3)nc2NCc2ccc(Cl)cc2)c1 | 0.0367
CCCCCCOc1ccc(CN2CCN(c3cccc(C(F)(F)F)c3)CC2)cc1 | -3.15
N#CCNC(=O)[C@H](Cc1c(F)cccc1F)NC(=O)c1ccc(-c2cc(C(=O)O)ccc2Cl)cc1 | 0.079
C=CCN(Cc1cccc(Cl)c1)C(=O)Nc1ccccc1 | -8.36
O=C(c1ccccc1)N1CCN(c2cc(Cl)ccc2Cl)CC1 | -6.05
COc1ccc(NC(=O)CN(c2ccc(C)cc2C)S(C)(=O)=O)cc1 | -3.28
CC(C)C(=O)N1c2ccccc2N=C2CC(C)(C)CC(O)=C2C1c1cccs1 (stereo not shown) | -5.14
O=C(Cn1cc(C(=O)C(F)(F)F)c2ccccc21)NCc1ccccc1 | -3.28
Oc1ccc(C2CC3CCC2C3)cc1O (stereo not shown) | -1.77
Cc1ccsc1-c1nc(CSCC(=O)NCCN2CCCC2)c(C)o1 | -4.71
CCc1ccc(-c2nc3cc(N)ccc3o2)cc1 | -3.82
CCC(C(=O)c1ccccc1)n1nnc2ccccc2c1=O (stereo not shown) | -0.0108
O=C(CSc1nnc(CNC(=O)c2ccco2)o1)Nc1nc2ccccc2s1 | 1.85
C=Cc1ccc(CSc2cc(C)nc3nc(C)nn23)cc1 | 1.3
COc1cc(OC)c(C2CC(c3c(O)cc(C)oc3=O)=NCCS2)cc1OC (stereo not shown) | 3.31
COc1ccc(-c2cc(C(=O)Nc3cccnc3)c3ccccc3n2)cc1 | -7.56
CC(C)c1ccc(OCC(=O)N(Cc2ccco2)Cc2ccco2)cc1 | -1.07
Cc1ccc(OCC(=O)N2CCN(c3ccccc3)CC2)cc1 | -3.48
COC(=O)c1ccc(C2c3c(oc4ccccc4c3=O)C(=O)N2c2nnc(C(C)C)s2)cc1 (stereo not shown) | -6.23

SMILES | % Inhibition @ 10 uM [%]
O=C(Nc1cc(O)ccc1C(=O)O)c1cccc(Br)c1 | 7
CCCN1CCN(C(=O)Cn2ncc3c4ccccc4n(Cc4c(C)cc(C)cc4C)c3c2=O)CC1 | -0.0741
Cc1oc2c(C)c3oc(=O)c(CC(=O)NCc4ccccc4)c(C)c3cc2c1C | -6.29
O=C(Cc1ccccc1)n1nc(-c2cccnc2)nc1NCc1ccc(F)cc1 | 2.21
N#Cc1c(-c2ccccc2)cc(-c2cccc(Br)c2)c(C#N)c1N | -1.86
CS(=O)(=O)N1CCc2cc(C(=O)Nc3ccccc3Cl)ccc21 | -5.21
CCOc1ccc(-c2nn(-c3ccccc3)cc2C2NC(=O)NC(C)=C2C(=O)OC)cc1C (stereo not shown) | -7.58
Cc1cccc(N(C)C(=O)c2cnn(-c3ccccc3)c2C)c1 | 6.7
CC(=O)c1c(C)nn(CC(O)COc2ccc(-c3ccccc3)cc2)c1C (stereo not shown) | 0.895
O=C(NCCc1ccc(O)cc1)c1ccccn1 | -3.5
Fc1cccc(Cl)c1CN1CCN(Cc2ccccc2)CC1 | 0.273
CC(=O)Nc1ccc(NC(=O)Cn2cnc3c2c(=O)n(C)c(=O)n3C)cc1 | 2.55
Cc1cccc(-c2nc(CSCC(=O)NCCN3CCCCCC3)c(C)o2)c1 | 3.99
Cc1ccc(C2CC(=O)N=C(NC(=O)c3ccc(Cl)cc3)N2)cc1 (stereo not shown) | 3.89
CC1=C(C(=O)Nc2cccc(Cl)c2)C(c2cccc(Cl)c2)NC(=O)N1 (stereo not shown) | 2.36
O=C1c2cccnc2C(=O)N1Cc1ccc(S(=O)(=O)N2CCCC3CCCCC32)cc1 (stereo not shown) | 0.107
C=Cc1ccc(Cn2c(C)c(CNCCc3ccccc3)c(C(=O)O)c2C)cc1 | 1.41
Cc1nc2ccccc2n1CCc1nc2c3ccccc3nc(N3CCC(N4CCCCC4)CC3)n2n1 | -0.692
CC1=C(C(=O)N2CCOCC2)C(c2ccc3c(c2)OCO3)C2=C(O)CC(C)(C)CC2=N1 (stereo not shown) | 0.219
O=C(O)CCCn1ccc2cc(S(=O)(=O)N3CCCC3)ccc21 | 3.24
COc1ccc(Br)cc1CN1CCC(C)CC1 | -2.21
COc1cccc(NC(=O)Nc2ccc(Cl)cc2)c1 | -2.21
CC(=O)c1ccc(S(=O)(=O)NCc2csc(-c3ccccc3)n2)cc1 | -4.24
Nc1ccc(Nc2ccc([N+](=O)[O-])cc2S(=O)(=O)O)cc1 | -0.687
O=C(NC1CCCCC1NC(=O)C1CCCCC1)C1CCCCC1 (stereo not shown) | 3.65
